Screen size: about 52,000 compounds; about 4,300 (8.3%) were called active. No stated cut-off is given here; in the data, active means survival mostly below about 52% (no sharp cut-off); inactive means mostly above about 56%. This is one part of the list.

The test system of the experiment is DeltatarO mutant. The experiment is described as follows: S. aureus survival, RN4220 and DeltatarO strains – OD600, teichoic acid synthesis inhibitors, primary screen (AID 463173). The following applies: S. aureus RN4220 wild type/DeltatarO growth, OD600, 18 h, stronger effect = lower value, screened at 18.75 µg/mL (by protocol).
Regarding `O=C(CSc1nccn1C1CCCC1)Nc1ccc(C(F)(F)F)cc1`, the survival was inactive: 101%.

In the case of `CC(C)c1ccc(-c2nc(C(N)=O)c3c(n2)n(-c2ccc4c(c2)OCO4)c(=O)n3C)cc1`, the survival is inactive: 76%.

Turning to `COc1ccc(NC(=O)C2CCN(S(=O)(=O)c3ccc4[nH]c5c(c4c3)CCCCC5)CC2)cc1`, the survival is inactive: 113%.

`CCOc1ccc(NC(=O)Cn2cc(S(=O)(=O)NC)c(S(=O)(=O)NC)c2)cc1`: the survival was inactive: 57%.

On to `O=C(Nc1cccc(F)c1)[C@H](CSCc1ccccc1)N1Cc2ccccc2C1=O`, for which the survival was inactive: 60%.

In the case of `Cc1ccc(Cl)cc1-n1c(=O)c2sc3ccccc3c2n(Cc2ccccc2)c1=O`, the survival is inactive: 95%.

`CCCCCSc1nnc(-c2ccc(Br)cc2)o1`: the survival was active: -1%.

For the molecule `CCOc1cc(-c2nnc(SCC(=O)NC3CCCC3)nc2-c2ccc(OC)c(OCC)c2)ccc1OC`, the survival was inactive: 93%.

Consider `CC(=O)Nc1ccc2sc(C)nc2c1`, for which the survival is inactive: 67%.

As to `COc1ccccc1Nc1cccc2nonc12`, the survival is inactive: 76%.

On to `CSc1ncc(C(=O)N2CCN(c3cc(C)ccc3C)CC2)c(C)n1`, for which the survival is inactive: 72%.

On to `Cc1cccc(N2CCN(C(=O)CN3C(=O)COc4ccc(S(=O)(=O)N5CCCCCC5)cc43)CC2)c1C`, for which the survival is inactive: 73%.

With `CN(C)C(=O)N(C)C1CCS(=O)(=O)C1` (stereo not drawn), the survival is inactive: 105%.

`CCOC(=O)C1=C(C)NC(=O)NC1c1cn(-c2ccccc2)nc1-c1ccc(OCC)cc1` (stereo not drawn): the survival was inactive: 58%.

Consider `Cc1nc2ccc(S(=O)(=O)N3CCCCC3)cc2s1`, for which the survival is inactive: 95%.

In the case of `Cc1cc(C)c(OCC(=O)N(Cc2ccco2)Cc2ccco2)c(C)c1`, the survival was inactive: 66%.

Regarding `CCOC(=O)c1ccc(NS(=O)(=O)c2ccc(-c3cc(C)no3)cc2)cc1`, the survival was inactive: 102%.

As to `CC(C)(C)n1nnnc1C(c1ccc2ncccc2c1)N1CCOCC1` (stereo not drawn), the survival is inactive: 71%.

With `Cc1ccc(C)c(NC(=O)c2cc(S(=O)(=O)N3CCCc4ccccc43)ccc2F)c1`, the survival is inactive: 82%.

In the case of `COc1ccc(Cn2ccc3nc(C)c(C(=O)Nc4cc(C)cc(C)c4)cc3c2=O)cc1`, the survival was inactive: 102%.

As for `COc1ccccc1CCNC(=O)c1ccc(-c2nc(CSc3ccc(C)cc3)c(C)o2)cc1`, the survival was inactive: 70%.

Take `Oc1ccc2ccccc2c1CN1CCOCC1`: the survival was inactive: 72%.

As for `CSc1ncc(C(=O)Nc2c(C)cccc2C)c(-c2ccccc2)n1`, the survival was inactive: 99%.

For the molecule `Cc1nc2ccccc2c(=O)n1-c1ccc(NC(=O)c2cccc([N+](=O)[O-])c2)cc1`, the survival was inactive: 75%.

For the molecule `Cc1ccc(S(=O)(=O)C2(C(=O)O)CC2)cc1C`, the survival was inactive: 99%.

As for `Cc1oc(-c2ccc(C(=O)NCc3ccc(Cl)cc3)cc2)nc1CS(=O)(=O)c1ccccc1`, the survival is inactive: 87%.

Turning to `CCn1c(=N)c(C(=O)NCc2ccccc2)cc2c(=O)n3cc(C)ccc3nc21`, the survival was inactive: 55%.

Regarding `CCCNS(=O)(=O)c1ccc(-n2cnnn2)c(OC)c1`, the survival is inactive: 103%.

On to `CCCCNC(=O)C(Cc1ccccc1)NS(=O)(=O)c1ccc2c(c1)c(=O)n(C)c(=O)n2C` (stereo not drawn), for which the survival is inactive: 86%.

Take `CCC1CN(C(=O)NCc2ccc(C)cc2)c2ccccc2O1` (stereo not drawn): the survival was inactive: 104%.

With `CC(C)c1ccc(N2C(=O)CS(=O)(=O)C23C(=O)N(Cc2cccc(F)c2)c2ccccc23)cc1` (stereo not drawn), the survival is inactive: 69%.

Take `CCOc1ccc(-c2ncnn2-c2sc3c(c2C#N)CCCCC3)cc1`: the survival is active: 5%.

In the case of `CCOc1ccc(NC(=O)c2cnc3ccccn3c2=O)cc1`, the survival was inactive: 113%.

For `Cc1ccc2c(CC(=O)Nc3c(C(=O)c4ccc(C)c(F)c4)oc4ccccc34)coc2c1`, the survival was inactive: 96%.

With `COc1cc(C2CC(=O)Nc3c2c(C)nn3-c2nncc(-c3ccc(C)cc3)n2)cc(OC)c1OC` (stereo not drawn), the survival is inactive: 92%.

Consider `O=C(CN1CCC(n2nnc3ccccc32)CC1)Nc1ccccc1Cl`, for which the survival was inactive: 94%.

For the molecule `COc1ccc(S(=O)(=O)c2c(O)c3ccc(C(=O)NCc4ccc(F)cc4)cc3[nH]c2=O)cc1`, the survival was inactive: 108%.

On to `COc1ccc(NC(=O)CSc2nc(-c3ccc(F)cc3)[nH]c2-c2ccc(C)cc2)cc1OC`, for which the survival was inactive: 64%.

Regarding `CC(=O)c1ccc(NC(=O)c2cnn(-c3cccc(F)c3)c2-n2cccc2)cc1`, the survival was inactive: 94%.

With `CCCCOc1ccc(C2(C)CC(=O)NC2=O)cc1` (stereo not drawn), the survival is inactive: 92%.

Regarding `Cc1ccc(CNC(=O)c2cc(C)nc3c2c(C)nn3-c2ccc(C)cc2)cc1`, the survival was inactive: 55%.

For the molecule `CCOC(=O)c1c(NC(=O)c2cc3ccccc3c(=O)o2)sc2c1CCC(C)C2` (stereo not drawn), the survival is inactive: 129%.

Turning to `COc1ccc(-n2c(=O)c3ccccc3n(CC(=O)Nc3ccccc3OC)c2=O)cc1`, the survival is inactive: 73%.

As to `COc1cc(OC)cc(C(=O)Nc2cc3c(cc2N2CCCC2)n(C)c(=O)c(=O)n3C)c1`, the survival was inactive: 126%.

`CCc1c(C)[nH][n+]2cnn(Cc3ccc(Cl)cc3)c2c1=O`: the survival was inactive: 89%.

As for `Cc1ccc2nc(SCC(=O)N(C)C3CCCCC3)c(C#N)cc2c1`, the survival was inactive: 98%.

Consider `O=C(Nc1ccc(Oc2ccccc2)cc1)C1CCN(S(=O)(=O)c2ccc(Cl)cc2)CC1`, for which the survival is inactive: 52%.

As for `CCOC(=O)c1cc(S(=O)(=O)NCc2ccc(C)cc2)[nH]n1`, the survival was inactive: 130%.

Regarding `COc1ccccc1NC(=O)CCCc1nnc2n(C)c(=O)c3sccc3n12`, the survival is inactive: 96%.

For the molecule `CC(C)Nc1nc(C#N)nc(NC(C)C)n1`, the survival was inactive: 93%.

On to `O=S(=O)(c1ccc(Cl)cc1)c1nc(-c2ccco2)oc1SCc1ccc(F)cc1`, for which the survival is inactive: 57%.

Take `COc1ccc(CCN2C(=O)c3[nH]nc(-c4ccccc4O)c3C2c2ccc(OC)cc2)cc1` (stereo not drawn): the survival was active: 29%.

`CC(C)CCNC(=O)C1CCN(Cc2ccccc2Cl)CC1`: the survival was inactive: 84%.

`CCOC(=O)c1[nH]c(C)c(/C=N/O)c1C`: the survival was inactive: 93%.

Turning to `COc1ccc(-c2nc(SCC(=O)Nc3ccc4c(c3)OCCO4)c(-c3ccc(C)cc3)[nH]2)cc1OC`, the survival was inactive: 49%.

For `O=C(Nc1cccnc1)Nc1c[nH]c2c(Cl)cccc2c1=O`, the survival was inactive: 89%.

As to `Cc1ccccc1Nc1c(-c2ccc(N3CCOCC3)cc2)nc2ccccn12`, the survival was active: 41%.

For `COc1ccc(NC(=O)CSc2ccc3nc(-c4ccccc4)cn3n2)cc1OC`, the survival was inactive: 113%.

Take `CC(C)NC(=O)c1nn(-c2ccccc2F)nc1CO`: the survival is inactive: 98%.

As for `O=C(CSc1nnc(-c2ccc(S(=O)(=O)N3CCCC3)cc2)n1CC1CCCO1)NC1CC1` (stereo not drawn), the survival was inactive: 99%.

`Cc1ccc(CNC(=O)CN2C(=O)COc3ccc(S(=O)(=O)Nc4ccccc4)cc32)cc1`: the survival is active: -4%.

In the case of `CC(C)(C)OC(=O)N1CCC(c2nnc(SCc3cccc(Cl)c3)o2)CC1`, the survival was active: 1%.

As for `Cc1ccc2nc3sc(C(=O)NCCCN(C)c4ccccc4)cc3cc2c1`, the survival is inactive: 115%.

On to `COc1ccccc1CNC(=O)CCC1N=C2c3ccccc3N=C(SCc3ccc(C)cc3C)N2C1=O` (stereo not drawn), for which the survival is inactive: 63%.

Consider `COC(CNS(=O)(=O)c1ccc(S(=O)(=O)NC2CC2)cc1)OC`, for which the survival is inactive: 74%.

For `Fc1cccc(-n2ncc3c2ncn2nc(Cc4ccccc4)nc32)c1`, the survival is inactive: 76%.

`CC(=O)c1ccc(NC(=O)c2cc3sccc3n2Cc2ccc(F)cc2)cc1`: the survival was inactive: 76%.

On to `CCn1c(SCCC#N)nnc1-c1ccncc1`, for which the survival is inactive: 98%.

With `Cc1cc(C)cc(NC(=O)c2cc(CN3CCCC3)on2)c1`, the survival was inactive: 88%.

`CCCCCOC(=O)CSc1ncnc2sc3c(c12)CCC(C)C3` (stereo not drawn): the survival is active: -4%.

On to `CCc1ccc(NC(=O)CC2C(=O)N(c3cccc(OC)c3)C(=O)N2C2CCCC2)cc1` (stereo not drawn), for which the survival was inactive: 108%.

Turning to `Cc1ccc(C)c(NC(=S)N2CCC(c3nc4ccccc4o3)CC2)c1`, the survival is inactive: 98%.

As for `Cc1ccc2c(c1)-c1ncc(C(=O)c3ccccc3O)cc1CO2`, the survival is active: 3%.

For `Cc1ccc(C(=O)NC2=NC(c3ccc(C)cc3)CC(=O)N2)cc1` (stereo not drawn), the survival is inactive: 120%.

In the case of `COc1ccc(-n2ncc3c(NC4CCCC4)ncnc32)cc1`, the survival was inactive: 131%.

Consider `COc1ccc(S(=O)(=O)Nc2ccc(-c3cn4c(C)csc4n3)cc2)cc1`, for which the survival was inactive: 94%.

For the molecule `COc1cc(C2C(C(=O)c3ccco3)=C(O)C(=O)N2CCc2ccccc2)ccc1O` (stereo not drawn), the survival is inactive: 86%.

As for `Cc1ccc(N2CCN(S(=O)(=O)c3cccc4ccccc34)CC2)cc1Cl`, the survival was inactive: 120%.

`COc1ccccc1S(=O)(=O)Cc1ccc(C(=O)NCc2ccc(Cl)cc2)o1`: the survival is inactive: 73%.

For `COc1ccc(-c2csc(N)n2)cc1C`, the survival was inactive: 97%.

With `O=C(Nc1cccc(C(F)(F)F)c1)c1cc(CN2CCOCC2)on1`, the survival was inactive: 120%.

Regarding `COc1cccc(CNC(=O)COc2cc(=O)n(C)c3ccccc23)c1`, the survival was inactive: 72%.

In the case of `Cc1ccc(-n2nnnc2CNC(=O)c2cc(C(F)(F)F)cc(C(F)(F)F)c2)cc1C`, the survival is active: 0%.

For the molecule `CCN(CC)C(=O)c1cc2sccc2n1Cc1ccc(F)cc1`, the survival is inactive: 100%.

With `CCc1cccc(NC(=O)CCNS(=O)(=O)c2cccc3nonc23)c1`, the survival was inactive: 97%.

For `COC(=O)c1ccc(NC(=O)c2nc(-c3ccc(Cl)cc3)n3c2CCCCC3)cc1`, the survival was inactive: 78%.

On to `CCOc1ccc2nc(SCC(=O)O)c(C)cc2c1`, for which the survival is inactive: 78%.

For the molecule `CCCCNC(=O)c1ccc2c(c1)ncn2-c1cc(OC)ccc1OC`, the survival is inactive: 112%.

Consider `Cc1c(Cl)cccc1-n1ncc(C(=O)Nc2ccc(Br)cc2F)c1C1CCNCC1`, for which the survival is inactive: 87%.

For `CCCn1c(SCC(=O)N(C2CCCCC2)C2CCCCC2)nc2c1c(=O)n(C)c(=O)n2C`, the survival is inactive: 90%.

`O=C(Nc1ccccc1F)c1ccc2c(Cl)c3c(nc2c1)CCC3`: the survival was active: 21%.

For the molecule `CCOc1ccccc1CNCc1cccn1-c1nnc(N2CCN(c3ccccc3)CC2)s1`, the survival is active: 47%.

For the molecule `CCN(CCCNC(=O)c1nn(-c2ccc(OC)cc2)c(=O)c2c1c1ccccc1n2C)c1ccccc1`, the survival was inactive: 75%.

For the origin of these results see PubChem BioAssay AID463173 (ICCB-Longwood Screening Facility, Harvard Medical School, 2010).
